Assay results published in the supplement of paper PMC11417369.
± gives the standard deviation of the averaged measurements. This is one part of the list.

The sequences below were run on PfAP2-EXP AP2 domain (GST-tagged) (assay: gcPBM binding intensity (ln(normalized median fluorescence intensity)); higher = stronger DNA binding).
Method in brief: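 Binding of GST-tagged P. falciparum DNA-binding domains, expressed in E. coli and used at about 25 μg on average, was carried out for 1 h in 1× PBS containing 1% milk, 0.2 mg/ml BSA, 0.5% salmon testes DNA and 0.03% Triton X-100. The target was an Agilent 4 × 180k array of primer-extended double-stranded 36-bp intergenic genomic probes plus negative controls, read with Alexa488 anti-GST antibody at 488 nm. Binding intensity is the highest Masliner-normalised natural-log median intensity across replicate spots of either probe orientation.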

Sequence	gcPBM binding intensity (ln)
TATATATATAAAAATACACACATGAATGAATATATA [CACACA_site419]	8.68 ± 0.13
TTTTAAAAAAAATAAAAAATAAACAATAATAAATAA [CACACA_negctrl_site721]	8.38 ± 0.45
TCTTTATTATTCGCCACACACATATATATATATATA [CACACA_site3077]	10.2 ± 0.43
AAAAAAAATAATATTGTACACACATAAATTCTTTGT [CACACA_site8654]	8.33 ± 0.28
TTTTATAAATACACACGTACGTGTGCATAACGTTTT [XGTACX_site3199]	9.01 ± 0.23
TACTTTTTAAAAATGTTTTATATAATAAAAAGATAT [CACACA_negctrl_site678]	8.42 ± 0.44
ATATCATAAGTAGAAACACACAATTAGATTTTTTCC [CACACA_site2353]	8.38 ± 0.49
TAAAAATATAAAACATGTACATATATGCATATATTT [XGTACX_site8093]	8.79 ± 0.47
ATTATAAACCAGAATGCATGTAGATGAATCTTTTCT [TGCATGCA_site284]	8.76 ± 0.3
AAATTTAAAATAAGTAGTACATAATATAAATAAATA [XGTACX_site3592]	8.67 ± 0.42
TAATTGAGCAAATGAGTGCACAGCATAAAGTATAGT [GTGCAC_site9497]	9.29 ± 0.2
GTACTTGTATTATGCACACATATAATTAAACATATA [CACACA_site3312]	8.58 ± 0.17
TATAAAAGAAACTATACACACATATTTTAAATATTT [CACACA_site2753]	8.34 ± 0.57
AAATTTATTTCTGTGTGTCCACAAAAAAAAATCTTT [XGTACX_site691]	8.2 ± 0.24
TAAGCCTTTCTATTATGTACTTATTAAAACATGTAG [XGTACX_site8022]	8.55 ± 0.3
CTTATATTAAAACACACACACGCACAAAACAGAAAT [CACACA_site1462]	9.12 ± 0.42
TTTTTTTTTTTCAATAGTACTTTCCATTTACATATA [XGTACX_site3889]	8.66 ± 0.49
AAATATATATAAAACTCACACATTATCTTATAACCA [CACACA_site5268]	8.29 ± 0.37
TTTAATAAAAAAATTAAAAATAAAGAAAAAAAAAAA [CACACA_negctrl_site1464]	8.44 ± 0.32

Sequence	gcPBM binding intensity (ln)
GCGTAATCTATTTGCACACTTATTTGTTCTTAAAAA [CACACA_site672]	9.02 ± 0.35
TTAAATAAATATAAGTGTACATACACACTTTACAAT [XGTACX_site6348]	8.4 ± 0.16
GCATATGTTCAGCGTTGTACATAAAAAAAAACATAT [XGTACX_site5974]	8.92 ± 0.62
TATGTGTATACAATATGTACATATGTTAACTTGTAT [XGTACX_site872]	8.76 ± 0.4
ATGTATGGAAATTTTACACACAAGAGTAGTTTAAAA [CACACA_site1710]	8.39 ± 0.36
AAAAAATAATATTGTACACACATAAATTCTTTGTCA [CACACA_site5187]	8.27 ± 0.42
TGAGATAACAAAAGTTGTACTTTTTTTTTTTTTTTT [XGTACX_site3004]	8.585 ± 0.035
TTTTGAAAGTTTTTGTGTCCACATATATTTATATAT [XGTACX_site6563]	8.5 ± 0.45
TTTATTTATTACTAAAGTACTAAATCATATAATTAT [XGTACX_site3654]	8.16 ± 0.38
GTTTAAAGTTGAACAAGTACACATTTATATAAGGCA [XGTACX_site351]	8.67 ± 0.3
ATAAAAAACAGTGGCACACATTATGTATCCACCTTT [CACACA_site5958]	8.29 ± 0.092
ATGCATATAATTATATGTACATATAAGAAATATATA [XGTACX_site517]	8.71 ± 0.37
CATTTATTATGATAAAGTACTTAAATTAATAGATAA [XGTACX_site3566]	8.35 ± 0.36
TAGTGTATGATAATATGTACATACATTTATATAATA [XGTACX_site6330]	8.59 ± 0.35
TATGCACACAATATATGTACTTATATATTTTAAAAA [XGTACX_site5482]	8.62 ± 0.31
TTTTATAAAAAAACTATAAAAATATATAGTACTTAA [CACACA_negctrl_site440]	8.16 ± 0.3
TCTTTTTTTTTTTTTTTTTCTTCTTCTCAATATAAA [GTGCAC_negctrl_site303]	8.47 ± 0.43
CATAATATGTGGACTTTACACACTTGTTTTAAAATT [CACACA_site819]	8.39 ± 0.33
AATAATAAAAAATACACACACATATAAATATATTAC [CACACA_site7597]	8.63 ± 0.75

Sequence	gcPBM binding intensity (ln)
CATATAAAGATATGAACACACAAAAAGAATATTTCC [CACACA_site6811]	8.68 ± 0.4
TTCCGAACGACCTAAAGTACATGTATTTCAACTTTT [XGTACX_site1220]	8.7 ± 0.45
AGGACACATATATGCAAAAAAAAAAAAAAAAAAAAA [TGCATGCA_negctrl_site427]	8.14 ± 0.4
ATTATATTAATATATATATATATATATATAATAATA [CACACA_negctrl_site437]	8.31 ± 0.27
TTTTTTTCTCTTTTTATTACAAAAAGGGTTTATATA [TGCATGCA_negctrl_site75]	8.33 ± 0.44
ATGAAAAAATTTAAATGTACATTACATATATTTATT [XGTACX_site2524]	8.28 ± 0.38
TAATATTATATTATATGTACATAACAAATTATATTT [XGTACX_site4296]	8.6 ± 0.21
AAAAAAAATTCCAGTACACACAATAATACTAAAAAT [CACACA_site2801]	8.65 ± 0.35
AAAAATTACAAAAATGCATGTACTATTCATATTTTT [TGCATGCA_site918]	8.6 ± 0.38
ATGAGTAACATATTTGTGCACATATGGTTATTTTTA [GTGCAC_site9541]	8.665 ± 0.078
TATATATATATATATTTTTTTTTTTTATGCACATGG [CACACA_negctrl_site1573]	10.1 ± 0.36
TTTTTTTTTTTGAAATGTACATTCCAAAAACTGATA [XGTACX_site1495]	8.53 ± 0.49
CTTTTGAACAGTTCATGTACTCAATTTTTTAATAGT [XGTACX_site6498]	8.45 ± 0.33
TAATACCTATGGTATAGTACGTATTATTTTATAGAG [XGTACX_site2078]	8.49 ± 0.5
TATTTTTATTGGTACTGTACCTATTTAGAAATACAT [XGTACX_site6663]	8.61 ± 0.35
ATGATTTCATTTGAGAGTACGTAAAAATAATACGTA [XGTACX_site4958]	8.26 ± 0.29
TAATACAAAAACAATGTTCTTTCAAACATAAACATA [CACACA_negctrl_site1628]	8.25 ± 0.37
TTTGCCATATGACACACACACATGTAAACCCCCTTT [CACACA_site6873]	9.41 ± 0.45
